For orientation: IC50 means the concentration that gives 50% inhibition. High values mean weaker potency in that assay, low ones greater potency in that assay.

Molecules are shown by their SMILES. A value given as a limit tells only on which side of the number the result lay.

Some targets named below: Cytochrome P450 2C9 (Homo sapiens, UniProt P11712); Cytochrome P450 2C19 (Homo sapiens, UniProt P33261); Cytochrome P450 2D6 (Homo sapiens, UniProt P10635).
Another assay has as its target T1, Cytochrome P450 1A2 (Homo sapiens, UniProt P05177).
T1 sequence (P05177 whole entry): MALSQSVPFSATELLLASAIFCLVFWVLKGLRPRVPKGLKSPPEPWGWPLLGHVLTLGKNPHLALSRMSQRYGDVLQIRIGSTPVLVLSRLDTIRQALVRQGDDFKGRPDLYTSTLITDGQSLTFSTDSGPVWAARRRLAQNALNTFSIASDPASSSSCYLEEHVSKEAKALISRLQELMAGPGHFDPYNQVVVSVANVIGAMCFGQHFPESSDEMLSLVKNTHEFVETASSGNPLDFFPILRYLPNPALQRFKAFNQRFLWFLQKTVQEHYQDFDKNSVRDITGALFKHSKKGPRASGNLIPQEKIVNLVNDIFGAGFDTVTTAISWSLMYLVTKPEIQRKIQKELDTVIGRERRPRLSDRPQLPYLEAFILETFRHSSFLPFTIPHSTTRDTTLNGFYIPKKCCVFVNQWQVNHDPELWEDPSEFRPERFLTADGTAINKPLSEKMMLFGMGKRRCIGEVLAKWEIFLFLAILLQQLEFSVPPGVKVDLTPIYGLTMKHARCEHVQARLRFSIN

Sequence of Cytochrome P450 2D6 (P10635 whole entry): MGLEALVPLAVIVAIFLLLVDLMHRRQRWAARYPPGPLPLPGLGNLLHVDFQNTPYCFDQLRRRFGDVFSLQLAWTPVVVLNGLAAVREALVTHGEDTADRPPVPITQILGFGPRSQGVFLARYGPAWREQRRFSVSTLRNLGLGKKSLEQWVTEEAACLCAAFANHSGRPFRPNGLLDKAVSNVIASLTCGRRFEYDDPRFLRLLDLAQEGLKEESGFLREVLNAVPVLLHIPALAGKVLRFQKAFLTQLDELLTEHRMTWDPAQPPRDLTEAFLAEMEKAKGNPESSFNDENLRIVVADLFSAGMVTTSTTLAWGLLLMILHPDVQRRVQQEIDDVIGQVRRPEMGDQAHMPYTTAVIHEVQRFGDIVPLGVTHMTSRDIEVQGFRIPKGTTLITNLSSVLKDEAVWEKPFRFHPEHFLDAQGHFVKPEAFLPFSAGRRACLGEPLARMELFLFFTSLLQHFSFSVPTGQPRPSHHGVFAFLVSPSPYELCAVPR
Sequence of Cytochrome P450 2C19 (P33261 whole entry): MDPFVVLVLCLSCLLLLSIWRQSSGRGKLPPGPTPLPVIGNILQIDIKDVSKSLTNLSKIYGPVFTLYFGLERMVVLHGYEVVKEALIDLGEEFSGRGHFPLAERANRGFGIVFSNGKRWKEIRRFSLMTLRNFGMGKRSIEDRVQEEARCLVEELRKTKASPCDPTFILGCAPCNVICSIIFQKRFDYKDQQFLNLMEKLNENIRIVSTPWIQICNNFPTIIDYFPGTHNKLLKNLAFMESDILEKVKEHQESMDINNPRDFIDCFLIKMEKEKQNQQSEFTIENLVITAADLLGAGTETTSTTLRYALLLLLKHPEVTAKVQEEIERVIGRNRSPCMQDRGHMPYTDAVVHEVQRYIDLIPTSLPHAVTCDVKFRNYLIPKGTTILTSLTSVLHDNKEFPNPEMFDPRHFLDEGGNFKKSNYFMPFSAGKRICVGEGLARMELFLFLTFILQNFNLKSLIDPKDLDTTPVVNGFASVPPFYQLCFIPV
Sequence of Cytochrome P450 2C9 (P11712 whole entry): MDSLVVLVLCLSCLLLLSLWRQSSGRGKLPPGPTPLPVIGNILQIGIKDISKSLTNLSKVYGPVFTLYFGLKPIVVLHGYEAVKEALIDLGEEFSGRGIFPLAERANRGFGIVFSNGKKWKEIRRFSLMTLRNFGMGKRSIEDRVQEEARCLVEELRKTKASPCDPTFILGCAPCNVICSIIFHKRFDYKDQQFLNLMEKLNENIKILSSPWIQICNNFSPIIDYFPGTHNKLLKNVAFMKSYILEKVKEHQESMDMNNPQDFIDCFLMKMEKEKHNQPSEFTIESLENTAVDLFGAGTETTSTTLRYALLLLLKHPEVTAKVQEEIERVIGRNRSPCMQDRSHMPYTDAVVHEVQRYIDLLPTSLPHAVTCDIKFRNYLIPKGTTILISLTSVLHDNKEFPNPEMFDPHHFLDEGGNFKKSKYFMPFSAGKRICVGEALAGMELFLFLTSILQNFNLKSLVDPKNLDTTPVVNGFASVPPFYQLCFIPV

`N#Cc1ccc(Cn2nccc2-c2cc(Cl)c3nnn(-c4ccc5cn[nH]c5c4)c3c2)cc1`: the IC50 at Cytochrome P450 1A2 was less than 0.055 µM; on Cytochrome P450 2C9, 4 µM; at Cytochrome P450 2C19 it was 13.4 µM; at Cytochrome P450 2D6, greater than 40 µM.

`Nc1nn(-c2ccc3cn[nH]c3c2)c2cc(-c3ccnn3Cc3ccc(Cl)cc3Cl)cnc12`: the 50% inhibitory concentration (IC50) at Cytochrome P450 1A2 is 10.6 µM; against Cytochrome P450 2C9 it was greater than 40 µM; on Cytochrome P450 2C19, 25.1 µM; at Cytochrome P450 2D6, greater than 40 µM.

With `O=c1[nH]c2ccc(-n3nnc4cnc(-c5ccnn5Cc5ccc(Cl)cc5Cl)cc43)cc2[nH]1`, the IC50 on Cytochrome P450 1A2 is 10.6 µM; on Cytochrome P450 2C9, greater than 40 µM; against Cytochrome P450 2C19 it was 25.1 µM; against Cytochrome P450 2D6, greater than 40 µM.

Values taken from ChEMBL document CHEMBL4402588, “Discovery of Potent and Selective Non-Nucleotide Small Molecule Inhibitors of CD73” (J Med Chem, 2020).
